In the supplement of paper PMC10338343:
± gives the standard deviation. Whole data set: some 3,700 sequences, median “pre-steady-state target cleavage rate” near 0.02, cut for the highest 2% near 0.23. This is a selection; strong and weak results do not stand in their true shares.

Each sequence was assayed on MILI (PIWIL2) piRISC loaded with Kctd7 piRNA (26 nt) (assay: pre-steady-state target cleavage rate (min^-1); MIWI and MILI are mouse PIWI proteins and EfPiwi is from a freshwater sponge; tags in brackets are library labels; higher = faster piRNA-guided slicing of the target). Settings: guide: Kctd7 piRNA 5'p-UGUUAAUCUCUCAGAGAAGGUGACAG; auxiliary factor: 500 nM mouse GTSF1.
Description: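 Cleave-'n-Seq: a library of target RNAs (target site embedded in constant flanks, ACAGCATTCCGCGTTAGTGATATCCG... 5' flank; DNA-blocked outside the site) at 0.1 nM was incubated with 1 nM active mouse MILI or MIWI piRISC (synthetic 5'-monophosphorylated piRNA guide) with or without 500 nM mouse GTSF1 at 33 °C for 1 min to 16 h. Uncleaved targets were sequenced and normalised to non-target controls, and the pooled three trials were fitted to a burst-and-steady-state model to give the pre-steady-state cleavage rate (min^-1; k3 is constrained to at most 1e-4). Sequence is the target site only; target names encode pairing extent (gX:gY) and contiguous / 1-mismatch / 2-mismatch / bulge geometry. Fits with R² ≤ 0 are excluded.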

Sequence	pre-steady-state target cleavage rate
UAGUGAGUCACCAUCUCUGAGAGAUUUACA	0.116 ± 0.023
UAGUGACAGACCUUUUCUGAGAGAUUAACA	0.0857 ± 0.011
UAGUGACACACCUUCUCUGGGAGAUUAACA	0.141 ± 0.013
UAGUGAGUCACCCUCUCUGAGAGAUUAACA	0.179 ± 0.021
UAGUGACACACGUUCUCUGAGAGAAUAACA	0.0308 ± 0.01
UAGUGUAGUCACCUUCUCUGAGAGAUUAACA	0.219 ± 0.019
UAGUGACACUCCUUCUCUGACAGAUUAACA	0.0452 ± 0.0059
UAGUGACACACCUUCUCUGAGACUAUAUGA	< 0.0001
UAGUGAGUGACCUUCACUGAGAGAUUAACA	0.105 ± 0.014
UAGUGACAGACCUUGUCUGAGAGAUUAACA	0.0481 ± 0.0096
UAGUGACAGACCUUCUCUGAGAGAUUAACCA	0.116 ± 0.018
UAGUGACUCACCUACUCUGAGAGAUAAACA	0.0326 ± 0.011
UAGUGACAGUCCUUCUGUGAGAGAUUAUCA	0.00527 ± 0.0037
UAGUGUGUGAGCUUCUCUGAGAGAUUAACA	0.0828 ± 0.011
UAGUCUGUCACCUUCUCUGAGAUAUUAACA	0.122 ± 0.018
UAGUGACUGACCUUCUCUGAGAGAUUAUGA	0.0133 ± 0.0064
UAGUGACAGUCCAUCACUGAGAGAUUAACA	0.0134 ± 0.0039
UAGUGACUGACCUUCUCUGAGAGAAUAACA	0.0354 ± 0.012
UAGUGAGUCACCUUCUGUGAGAGAUUUACA	0.0322 ± 0.014
UAGUGAGUCACCAUCUCUGAGAGAUUAAGA	0.0541 ± 0.017
UAGUGACAGAUCUUCUCUGAGAGAUUAACA	0.0797 ± 0.0085
UAGUGAGUCAGCAUCUCUGAGAGAUUAACA	0.105 ± 0.0096
UAGUGACAGUGCUUCUCUGAGAGAAUUAACA	0.0127 ± 0.0041
UAGUGUGACACCUUCUCUGAGAGUUUAACA	0.123 ± 0.038

Sequence	pre-steady-state target cleavage rate
UAGUCUGUCAGCUUCUCUGAGAGAUUAAGA	0.0299 ± 0.0077
UAGUGACAGUGCAUCACUGAGAGAUUAACA	0.00615 ± 0.0028
UAGUGACAGUGGAUCUGUGAGUGAUUAACA	< 0.0001
UAGUGACACACCUUCUCUGAGAGAUUAGCA	0.0856 ± 0.021
UAGUGAGUCACCAUCUCAGAGAGAUUAACA	0.0744 ± 0.0093
UAGUGACAGUCCUUCUCUGAGAGAUUAUCA	0.0227 ± 0.0061
UAGUGACAGUCCUUCUCUGAGAGAUUAACA [g2:g20:cont:t1A]	0.0942 ± 0.0076
UAGUGUGUCACCUACUCUGACAGAUUAACA	0.0305 ± 0.006
UAGUCAGUCACCUUCUCAGAGAGAUUAACA	0.184 ± 0.019
UAGUGACUCACCUUCUCUCAGAGUUUAACA	0.0241 ± 0.0079
UAGUGACAGUCCUUCUCUGAGUCAUUAAGA	< 0.0001
UAGUCUGUGACCUUCUCUGAGAGAUUAAGA	0.0692 ± 0.011
UAGUGACACAGCUUCUCUGAGAGAUUAAGA	0.0257 ± 0.0046
UAGUGUGUCACCUUCAGUGAGAGAUUAACA	0.0945 ± 0.014
UAGUGUAUCACCUUCUCUGAGAGAUUAACA	0.14 ± 0.015
UAGUGACAGUCCUAGUCUGAGAGAUUAACA	0.0204 ± 0.0034
UAGUCACUCACCUUCUCUGAGAGAUUUUGA	0.0174 ± 0.0076
UAGUGACACACCUGCUCUGAGAGAUUAACA	0.128 ± 0.0093
UAGUGACACACCUUCUCAGAGAGAUUAUGA	0.0269 ± 0.01
UAGUGUGUCACCUUCUCUGUGAGAAUAACA	0.0183 ± 0.0076
UAGUGACAGACCUGCUCUGAGAGAUUAACA	0.0943 ± 0.014
UAGUGUGUCACCUUCUCACAGAGAUUAACA	0.0718 ± 0.021
UAGUGACUCACCUUCUCACUGAGAUUAACA	0.00822 ± 0.0033
UAGUGACACUCCUUCUCUGAGAGAUAAACA	0.0379 ± 0.0083

Sequence	pre-steady-state target cleavage rate
UAGUGACAGUCCUUCUCUGAGAGAUUAACC [g2:g20:cont:t1C]	0.0605 ± 0.01
UAGUGUGUCACCUUCUCUGAGUGAUUAACA	0.00848 ± 0.0049
UAGUCUGUCUCCUUCUCUGAGAGAAUAACA	0.0604 ± 0.014
UAGUGACAGUGGAUCUCUGAGAGUAUAACA	< 0.0001
UAGUGACAGACCUUCUCUGUCAGAUUAACA	0.013 ± 0.0043
UAGUGAGUCACCUACUCUGAGAGAUUAAGA	0.0791 ± 0.018
UAGUGACACACCAUCUCUGAGAGUUUAACA	0.0726 ± 0.021
UAGUGACAGUGGUCUCUCUGAGAGAUUAACA	0.00439 ± 0.0021
UAGUGUGUCACCUACUGUGAGAGAUUAACA	0.112 ± 0.0091
UAGUGACAGACACUUCUCUGAGAGAUUAACA	0.0311 ± 0.0079
UAGUGACAGAGCUACUCUGAGAGAUUAACA	0.0145 ± 0.0035
UAGUGACAGUGCUUCUCUCAGACAUUAACA	0.00361 ± 0.0031
UAGUGACAGACCUUCACUGAGAGUUUAACA	0.0174 ± 0.008
UAGUGUGUCACCAUCUCUGAGAGAUUUACA	0.158 ± 0.033
UAGUGACAGUCCUUUCUGAGAGAUUAACA	0.0132 ± 0.0041
UAGUGAGUGUCCUUCUCUGAGAGAUUAAGA	0.0291 ± 0.01
UAGUGAGUCACCUACACUGAGAGAUUAACA	0.113 ± 0.0093
UAGUGACAGUCCUUCUCUGAGAGAUUAACU [g2:g20:cont:t1U]	0.0552 ± 0.0092
UAGUGAGCUCACCUUCUCUGAGAGAUUAACA	0.15 ± 0.016
UAGUGAGCCACCUUCUCUGAGAGAUUAACA	0.218 ± 0.025
UAGUGACACACCUUCUCAGAGAGAUAAACA	0.0619 ± 0.013
UAGUCUGUCACCUUCUCUGAGAGAUUACA	0.158 ± 0.036
UAGUCUGACACCAUCUCUGAGAGAUUAACA	0.11 ± 0.0062
